Data: ChEMBL document CHEMBL4888484, “Replenishing the malaria drug discovery pipeline: Screening and hit evaluation of the MMV Hit Generation Library 1 (HGL1) against asexual blood stage Plasmodium falciparum ,using a nano luciferase reporter read-out” (2022)
Out of some 150,000 compounds screened, about 540 (0.36%) showed an effect of 50% or more. Some of the results follow.

Tested on: Plasmodium falciparum
Assay: Primary screen in NF54 nanoGlo assay, in single point, at 2uM, 72h; a lower Z score goes with more inhibition
Assay type: functional, Erythrocyte
Settings: timepoint 72 hour

| SMILES | % Inhibition [%] | Z score |
| --- | --- | --- |
| CC1(C)[C@H]2CC=C(CN3CCc4nocc4C3)[C@@H]1C2 | -2 | 0.44 |
| COc1ncccc1C(=O)N1C[C@H](c2ccccc2)[C@@H]2[C@H]1C1CCN2CC1 | -14 | 1.77 |
| CN(C)C(=O)c1cn(CC2CCCCC2)cc(C(=O)NCc2nc3ccccc3s2)c1=O | 9 | -1.22 |
| Cc1oc(-c2ccccc2)nc1Cn1c(=O)oc2ccccc21 | -4 | 0.48 |
| Cc1ccc(CN(Cc2ccc(F)cc2)C(=O)CN(CCN2CCOCC2)C(=O)Cc2ccccc2)o1 | -3 | 0.39 |
| C=CCOc1cccc2c1cc(C(=O)NCc1ccccc1)n2C/C=C\C | -15 | 1.73 |
| Cc1cccc(-c2nc(C)c3c(n2)N(CCN2CCCC2)C(=O)C3)c1 | -8 | 1.16 |
| Cc1cccc([C@H]2C[C@@H](O)[C@@H](O)[C@@H]2NCC2CCCC2)c1 | -2 | 0.32 |
| O=C(Nc1ccc2c(c1)CNCC2)c1coc(Br)c1 | -2 | 0.31 |
| Nc1cc(-c2noc(C34CCCN(CCC3)C4)n2)ncn1 | -7 | 1.3 |
| O=C(CN1CCCC1=O)NC1CCCCCCC1 | -5 | 0.76 |
| CN1C[C@@H]2CN(C(=O)c3ncccc3Br)C[C@@H]2C1 | 4 | -0.7 |
| CC(C)(N)Cc1ccc(C(F)(F)F)cc1 | 1 | -0.09 |
| COc1ccc(NC(=O)CN2CCCN(C)S2(=O)=O)cc1 | -19 | 3.17 |
| c1ccc(CCNC2CCCCCCC2)nc1 | 5 | -0.79 |
| c1ccc2c(c1)c(-c1noc(-c3ccncc3)n1)nn2CCN1CCCCC1 | -6 | 0.98 |
| CC(C)(C)NC(=O)CN1C[C@H]2CCC[C@@H](C2)C1 | -15 | 1.95 |
| CN1CC2CN(C(=O)c3cccs3)CC(C1)O2 | -15 | 1.85 |
| Fc1ccc(CCNCc2ccc3[nH]ccc3c2)cc1 | 0 | 0.07 |
| COc1nc(NC2CCCCC2)nc(N2CC3CC(C2)c2cccc(=O)n2C3)n1 (stereo not drawn) | 29 | -3.23 |
| CC(=O)N(C1CCN(Cc2ccccc2)CC1)C1(C(=O)Nc2ccc3[nH]ccc3c2)CCN(C)CC1 | 92 | -11.04 |
| Cc1ccc([C@H]2CN(C(=O)Cc3cc(F)ccc3F)C[C@@H]2N(C)C)cc1 | -1 | 0.14 |

| SMILES | % Inhibition [%] | Z score |
| --- | --- | --- |
| COc1cccc(Cn2nnc(C(=O)O)c2-c2cccc(OC)c2)c1 | -7 | 1.38 |
| CCOCCc1nc(-c2c(C)ncc3c2CCNC3)no1 | -10 | 1.51 |
| CC(C)(O)CC(=O)N1CCN2CCOC[C@@H]2C1 | 12 | -2.3 |
| NCC(=O)c1c(Cl)cccc1Cl | -13 | 1.82 |
| COc1ccccc1NC(=O)N1C[C@@H]2C[C@H](C1)c1c(-c3cncnc3)ccc(=O)n1C2 | 32 | -3.66 |
| CCC1(CC)CN(CCc2nccn2C)CCO1 | 0 | -0.01 |
| C[C@@H](Cc1ccccn1)N(C)CCC(=O)Nc1ccccc1Cl | -7 | 1.04 |
| CC(=O)C1(c2ccccc2)CCN(C(=O)[C@@H](N)Cc2c[nH]cn2)CC1 | -13 | 1.89 |
| CCOC[C@@H](O)CN1CCCN(C(=O)Oc2ccccc2)CC1 | -6 | 1.19 |
| COCCN1C(=O)NC(=O)C2(Cc3ccccc3N3CCN(c4ccc(OC)cc4)CC32)C1=O (stereo not drawn) | -4 | 0.5 |
| O=C(CN1CCN(C(=O)Cc2ccccc2)CC1)Nc1ccccc1F | 14 | -1.63 |
| O=C(Cc1ccc(Cl)cc1Cl)N1CCC[C@H](c2n[nH]c(=O)o2)C1 | 5 | -0.51 |
| CC(C)n1nccc1[C@H]1OCC[C@@H]1NC(=O)c1ccc(S(=O)(=O)F)cc1 | 1 | -0.19 |
| CC(C)N1CCN(Cc2cncn2C)CC1 | 23 | -2.9 |
| Cc1nnc(N2CCN(C)CC2)c(C#N)c1C | -5 | 0.72 |
| O=C(c1ccc2cccnc2n1)N1C[C@H](c2ccccc2)[C@@H]2[C@H]1C1CCN2CC1 | -9 | 1.23 |
| O=C1COc2c(Cl)cc(NC(=O)N[C@H]3CN4CCC3CC4)cc2N1 | -12 | 1.54 |
| Cc1noc(C)c1Cc1nc([C@H]2CN3CCCCC3CO2)no1 (stereo partly drawn) | 30 | -3.38 |
| CCC#CCN1C[C@H]2c3cccc(OC)c3OC[C@@]2(C(=O)O)C1 | -15 | 2.37 |
| O=C(N[C@H]1CN2CCC1CC2)c1ccc(Cl)cc1 [PNU-282987] | -6 | 0.75 |
| Cc1cccc(OCC(=O)N2CCN(Cc3noc4ccccc34)CC2)c1 | -7 | 0.86 |
| O[C@@H](CN1OC2CCC1CC2)C1CCCCC1 | -11 | 1.13 |
